Experimental data: the supplement of paper PMC4604168 (melanoma cell lines)
This is one part of the list. Most values come without repeats; read them as rough.

How the values were obtained:
Assay in all cases: cell count relative to DMSO control; melanoma cells; higher = more viable cells
Settings in all cases: library dose: low library concentration; 72 h
WM1716 = test system: WM1716
WM1745 = test system: WM1745
WM3526 = test system: WM3526
WM3619 = test system: WM3619
WM451Lu = test system: WM451Lu
WM115 = test system: WM115
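Note: cell number obtained by counting DAPI-stained nuclei in high-throughput microscope images with image analysis software, screen run in 1,536-well plates.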

| SMILES | cell count (WM1716) | cell count (WM1745) | cell count (WM3526) | cell count (WM3619) | cell count (WM451Lu) | cell count (WM115) |
| --- | --- | --- | --- | --- | --- | --- |
| Cc1cn(-c2cc(NC(=O)c3ccc(C)c(Nc4nccc(-c5cccnc5)n4)c3)cc(C(F)(F)F)c2)cn1 [nilotinib] + c1cc(-c2cnn3cc(-c4ccc(OCCN5CCCCC5)cc4)cnc23)ccn1 [Dorsomorphin] (first compound 0.2 µM, partner dose 0.4 µM) | 113% | 77.3% | 103% | 116% | 102% |  |
| Cc1cc(Nc2cc(N3CCN(C)CC3)nc(/C=C/c3ccccc3)n2)n[nH]1 + Clc1ccc(Nc2nnc(Cc3ccncc3)c3ccccc23)cc1 [vatalanib] (first compound 0.04 µM, partner dose 2 µM) | 94.4% | 85.3% | 103% | 94.2% | 69.5% | 88.1% |
| Cc1cc(Nc2cc(N3CCN(C)CC3)nc(/C=C/c3ccccc3)n2)n[nH]1 + COc1ccc(Cl)c(Nc2nc3ccccc3nc2NS(=O)(=O)c2cccc(NC(=O)C(C)(C)N)c2)c1 [XL147] (first compound 0.04 µM, partner dose 0.8 µM) | 100% | 82.5% | 102% | 97.3% | 91.8% | 96.5% |
| COc1ccc(C2=N[C@@H](c3ccc(Cl)cc3)[C@@H](c3ccc(Cl)cc3)N2C(=O)N2CCNC(=O)C2)c(OC(C)C)c1 [Nutlin-3] + CCN(CC)CCNC(=O)c1c(C)[nH]c(/C=C2\C(=O)Nc3ccc(F)cc32)c1C [sunitinib] (first compound 0.1 µM, partner dose 0.4 µM) | 129% | 85.2% | 87.3% | 96.3% | 106% | 99.3% |
| COc1ccc(C2=N[C@@H](c3ccc(Cl)cc3)[C@@H](c3ccc(Cl)cc3)N2C(=O)N2CCNC(=O)C2)c(OC(C)C)c1 [Nutlin-3] + C=CCn1c(=O)c2cnc(Nc3ccc(N4CCN(C)CC4)cc3)nc2n1-c1cccc(C(C)(C)O)n1 [MK1775] (first compound 0.1 µM, partner dose 0.02 µM) | 75.3% | 76.2% | 81.8% | 70.6% | 103% | 68.7% |
| COc1ccc(C2=N[C@@H](c3ccc(Cl)cc3)[C@@H](c3ccc(Cl)cc3)N2C(=O)N2CCNC(=O)C2)c(OC(C)C)c1 [Nutlin-3] + CN(c1ncccc1CNc1nc(Nc2ccc3c(c2)CC(=O)N3)ncc1C(F)(F)F)S(C)(=O)=O [PF562271] (first compound 0.1 µM, partner dose 0.08 µM) | 89.7% | 102% | 95.4% | 102% | 67% | 77.4% |
| Cc1cn(-c2cc(NC(=O)c3ccc(C)c(Nc4nccc(-c5cccnc5)n4)c3)cc(C(F)(F)F)c2)cn1 [nilotinib] + Cn1cncc1[C@@](N)(c1ccc(Cl)cc1)c1ccc2c(c1)c(-c1cccc(Cl)c1)cc(=O)n2C [tipifarnib] (first compound 0.2 µM, partner dose 0.01 µM) | 76.7% | 105% | 82.4% | 136% | 105% | 103% |
| COc1ccc(C2=N[C@@H](c3ccc(Cl)cc3)[C@@H](c3ccc(Cl)cc3)N2C(=O)N2CCNC(=O)C2)c(OC(C)C)c1 [Nutlin-3] + COc1ccc(COc2ccc(Cc3cnc(N)nc3N)cc2OC)cc1 [GW2580] (first compound 0.1 µM, partner dose 1 µM) | 89.1% | 73.3% | 80% | 95.4% | 89.2% | 86.2% |
| Cn1c(=O)n(-c2ccc(C(C)(C)C#N)cc2)c2c3cc(-c4cnc5ccccc5c4)ccc3ncc21 + COc1ccc(-c2ccc3c(N4CCOCC4)nc(N4C[C@@H](C)O[C@@H](C)C4)nc3n2)cc1CO [KU0063794] (first compound 0.004 µM, partner dose 0.02 µM) | 68.8% | 97.6% | 99.1% | 63% | 90.7% | 81.3% |
| Cc1cc(Nc2cc(N3CCN(C)CC3)nc(/C=C/c3ccccc3)n2)n[nH]1 + COc1ccc(COc2ccc(Cc3cnc(N)nc3N)cc2OC)cc1 [GW2580] (first compound 0.04 µM, partner dose 1 µM) | 88.4% | 85.7% | 103% | 94.1% | 98% | 96.5% |
| COc1ccc(C2=N[C@@H](c3ccc(Cl)cc3)[C@@H](c3ccc(Cl)cc3)N2C(=O)N2CCNC(=O)C2)c(OC(C)C)c1 [Nutlin-3] + CCc1ccc(CCOc2ccc(CC3SC(=O)NC3=O)cc2)nc1 [pioglitazone] (first compound 0.1 µM, partner dose 2 µM) | 95.1% | 114% | 89.2% | 114% | 91.9% | 85.5% |
